From the supplement of paper PMC11417369
Some of the results follow.

test system: PfAP2-HC AP2 domain (GST-tagged); assay: gcPBM binding intensity (ln(normalized median fluorescence intensity)); higher = stronger DNA binding
Method in brief: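 GST-tagged P. falciparum DNA-binding domains, expressed in E. coli (about 25 μg on average), were applied for 1 h to an Agilent 4 × 180k array of primer-extended double-stranded 36-bp intergenic genomic probes plus negative controls. The binding buffer was 1× PBS with 1% milk, 0.2 mg/ml BSA, 0.5% salmon testes DNA and 0.03% Triton X-100. Bound protein was detected with Alexa488 anti-GST antibody and scanned at 488 nm. Binding intensity is the highest Masliner-normalised natural-log median intensity across replicate spots of either probe orientation.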

Row | Sequence | gcPBM binding intensity (ln)
1 | TATGTATAACTCAATGCATGCGAAGGACTATTATTT [TGCATGCA_site222] | 9.59
2 | AATATTGTTCACAAGGTGCTTTTTATTCATACTAAT | 9.8
3 | GTAATTTTTTTCTATACACACATATCTATAATATAT [CACACA_site7284] | 9.98
4 | TACTTATAATTTCAATGTACATATATATAATATCAT [XGTACX_site2424] | 9.65
5 | AATTAAATATTATAAACACACATATAGATTATTTTT [CACACA_site6538] | 9.73
6 | ATTTTAAATATGGAATGTACTTAAAAAAAATTTCAT [XGTACX_site5058] | 9.41
7 | ATTTCTTATTAAATTACACACAAAGTAAATAAATCT [CACACA_site3924] | 9.54
8 | TTTTCCTTTTTTTTTACATGCAGATATAGAAAGGTA [TGCATGCA_site106] | 9.3
9 | TTGTTTTGGATTATCACACATATAATATATACTCAT [CACACA_site4780] | 9.91
10 | AAATACATAACTTAAAATTTGTTCATATCTATACAT [TGCATGCA_negctrl_site249] | 9.65
11 | TATAATAATATGGATTGTACATATATATTTAATTAA [XGTACX_site4327] | 9.56
12 | TCTTTTTTGAACTAGCGTACATGAAAATATTTATAG [XGTACX_site7359] | 9.47
13 | TTATTACATATAAAGGAAAATAGCATCTAGATTAAA [XGTACX_negctrl_site435] | 9.44
14 | TTTTTATTTATATATAAGGAAAATGCGGTATATATT [CACACA_negctrl_site1770] | 9.44
15 | AAAAAAAAAAAAAAAAAATACATATACATTTGTGCA [CACACA_negctrl_site1431] | 9.43
16 | AACACCCATGGACACACACACATATATATATATATA [CACACA_site5809] | 10.4
17 | TTTTTATAAGCATAAAGTACAAATATTTTTTAGTTG [XGTACX_site4140] | 9.33
18 | TAAATCCGTTTGATGGGTACATACATACATACATAT [XGTACX_site8889] | 9.73
19 | ACAATAAAATATGGCACACATATATATATATATTTA [CACACA_site3] | 9.78
20 | ATTTATTTTAGTAAAGCACACGTGTAAAATATATCT [CACACA_site4820] | 9.8
21 | ACACAAAACAAAAAGGTGCTGTATAAATGGGTGTAT [GTGCAC_site9905] | 10.5
22 | CATATATAAAAAAACACACACATATTTATATTTATA [CACACA_site6682] | 10.3
23 | CATATTTCTTACATTTGTACTTAATAAAATTAATCA [XGTACX_site7224] | 9.72

Row | Sequence | gcPBM binding intensity (ln)
24 | AAAAAAATTTATAAATATTTTATTAATATATTTACC [GTGCAC_negctrl_site690] | 9.35
25 | ACAAAATAAATATGAACACACACATTTATGCCTTTA [CACACA_site8346] | 10.2
26 | ATAATTATACATATTACACACTCTCTTGATCTTTTT [CACACA_site3853] | 9.87
27 | TTTTTATACAACTTATAATACATCTGAAAATATAAA [XGTACX_negctrl_site36] | 9.32
28 | TTGTCTGACTAATTTTTTTCTGTTTGTACGTTCTTA [GTGCAC_negctrl_site602] | 9.76
29 | TATCACATATTATGATGTACAAGGTTTCTGACTAAT [XGTACX_site2763] | 9.47
30 | CAACATTCGTATATCACACATTTGCATGTTGTCAAT [CACACA_site4470] | 9.78
31 | GATTTAGTTATTTAAACATGCAATTTATATAGAATT [TGCATGCA_site47] | 9.45
32 | TATTTATACATACATACACACATATAGATTTATATT [CACACA_site7851] | 9.91
33 | TTATTTTTTATTATGTGTACATAACATCGCGATACA [XGTACX_site4359] | 9.67
34 | AAAACTTGTCAGAATGGACACACGAATTAAAGGCCT [CACACA_site1215] | 9.7
35 | TTTTTAATTTATTGTGTGCACACAACTATGAGTTTT | 10.4
36 | ATATGATATATATTCGGTACACATATATATAAAGAG [XGTACX_site430] | 9.89
37 | ATTTAAATAATATTCACACACAAAATTATATTTTAA [CACACA_site219] | 9.94
38 | AAGTTTTCTTAAAATTGTACTTTTCAAAAATAATCT [XGTACX_site277] | 9.34
39 | TATGTCAAATATATATGTACACAAATATACTATTAA [XGTACX_site2643] | 9.54
40 | AATATATATATTAGAGTGCACATAATTATTTGCTAA | 9.71
41 | ATAAAATATATATTAGTGCACTAAAGGAAAAAAAAT | 9.99
42 | ATAATCACAAATAATTGTACATTTTGTTATATATAT [XGTACX_site7704] | 9.63
43 | TGATATATATATATATATATAACACACGCAAAAAAA [TGCATGCA_negctrl_site240] | 9.98
44 | AAAAATTTCATATTCACACACAAAAAAAAAAAATAT [CACACA_site1592] | 9.96
45 | TATAAAAGGTAAGAGTGTACAAGTAAAAAATTTTTA [XGTACX_site771] | 9.77
46 | AATAAAAATTGGTAGGCACACATGGAACTATTAAAA [CACACA_site1257] | 10.1

Row | Sequence | gcPBM binding intensity (ln)
47 | ATGAACTATATTAAATCACACATTATCATTTTATAT [CACACA_site4989] | 9.81
48 | TATTTTTTTTTTTAATGTACAAACAAATTATGTTGG [XGTACX_site2873] | 9.31
49 | ATTTTTTTTATGAGGTGTACTCATATAATAACTACA [XGTACX_site5074] | 9.6
50 | TTTTCTAAAGTAAGTTAAGATATGCAAAAAAAAGAA [GTGCAC_negctrl_site242] | 9.62
51 | ATATATATATATATATGTACACATTAATGTTTTTTT [XGTACX_site167] | 9.78
52 | TATCCCTTAGAATACACACCCATATGAGCGTGAACT [CACACA_site2951] | 9.55
53 | TCGTATATGGATTTTGCACACAATTATAATTTAAAT [CACACA_site868] | 9.95
54 | TATATATTTTAAAATAGTACATATTATATAACCCAT [XGTACX_site2194] | 9.71
55 | TAAAAAATAAAAAAAGCACACACATATATATATATA [CACACA_site8567] | 9.97
56 | AAAATAAGAAATTGAAAAATTGAAAACAAAATTAAA [CACACA_negctrl_site1285] | 9.62
57 | TATAAATAAAAACACACACACATATATATATATATA [CACACA_site2319] | 10.4
58 | CCATTTTAAATATGCACACAGATGCACTAACCCATT [CACACA_site1883] | 9.91
59 | ACTACTCCATTAAGTAGTACACAAAAAAAAAAAATA [XGTACX_site7031] | 9.36
60 | TTACAAATGTTTTACACACACATAATTGTATCAATT [CACACA_site6147] | 9.99
61 | TAATAAAACATATATACACACATTATAAATACATAT [CACACA_site5014] | 10
62 | ATTATAGACACGCGCACACACAACAAAAAAAAAAAA [CACACA_site9180] | 11.3
63 | TTGGGGTATCTTCCTATGCACACTTGTTATGTACTA [CACACA_site831] | 9.85
64 | TTGATTACTAGAAATGCACACACTGATAAAATAAGG [CACACA_site4134] | 9.92
65 | ATACTTTTAAATTGATGTACTTTATTTATAAGGTGA [XGTACX_site6746] | 9.4
66 | TTGCTCACAAGAAGCACACAAAAAAAGAAAAAAAAA [CACACA_site4047] | 9.58
67 | ATATCCTTAAAAGATACACACATATGAATATTTTGT [CACACA_site3847] | 9.83
68 | TTTATACTTGTAAATGCACACATAAGATGCGACTAA [CACACA_site8662] | 9.64
69 | GTTTGTAAATATTTTACACACATATATATATATATA [CACACA_site1075] | 9.79

Row | Sequence | gcPBM binding intensity (ln)
70 | GTTTTTTTATTTCATCGTACAAAAAAGAAGGCTTTA [XGTACX_site5291] | 9.35
71 | TTATATATTTATTTATGTACATATTTTTTTATTATA [XGTACX_site6115] | 9.99
72 | TAAATATGTATTCATACATGCACATATATATATATA [TGCATGCA_site584] | 9.59
73 | TATAAAACGGATGAACAACAAATCATATGGCACAAA [TGCATGCA_negctrl_site608] | 9.86
74 | TTCACAAAATATTATTGTACATTAAAATATTTATAT [XGTACX_site2535] | 9.57
75 | TACATGATATATCACACACACATATAAATATATATA [CACACA_site2831] | 10.2
76 | GAAAATTTCTTATTTTGTACACACAATAAATATTCA [XGTACX_site3267] | 9.75
77 | TTTTTTTAATTTGGTTGTACTTAAAAAAAAAACAGA [XGTACX_site5788] | 9.22
78 | ACAGTATCTGGTAGCTGTACGAGTCGTAGAGTGCAG [XGTACX_site2015] | 9.78
79 | GGTAAGTACGACTTGACACACATACCCATATATATA [CACACA_site4837] | 9.89
80 | GCGAAATATTATTATAGTATACAAATACTTCTATGA [CACACA_negctrl_site197] | 9.51
81 | GGTGTTAAAAAATACACACACAAAAAAAAAAAAAAA [CACACA_site138] | 9.66
82 | TAACTTGAATGGATATGTACATATATATATATATAT [XGTACX_site5990] | 10
83 | ATTCATCTATTTTGTAGTACTAAATATATATCTACT [XGTACX_site8790] | 9.84
84 | AATAAACATATATACACACACAAAAAAAAAAACATA [CACACA_site424] | 10.4
85 | TAGATGTATGTACATACACACATATATAAATAAATA [CACACA_site1788] | 9.99
86 | TACCTAGGATTAAAGTGTCCACATAATTTAAATAAT [XGTACX_site6736] | 9.44
87 | TTCTTCTGTTTTATTACACACCATTTTGTGGATACA [CACACA_site5181] | 9.96
88 | TATATAAATAGACACACACACATATAAATATAAATA [CACACA_site6503] | 10.4
89 | TTTTTTATTATATAATTGTATATAAAATTATAATTT [GTGCAC_negctrl_site733] | 9.4
